US20250388663A1 (INSTITUT NATIONAL DE LA SANT ET DE LA RECHERCHE M DICALE, published 2025)
One block for each binder: values may come before it.

How the values were obtained:
human serum albumin [1] = molecular target: T1, human serum albumin (human, UniProt P02768); assay: bridging immunosorbent assay: HSA coated, KB-AT01A12 100 nM, antithrombin 0-6 microgram/ml, incubations at pH 5.6 or 7.4, anti-antithrombin detection
T1 construct: also called HSA; human albumin

human antithrombin = molecular target: T2, human antithrombin (human, UniProt P01008); assay: bridging ELISA: HSA-coated wells, KB-AT01A12 at 100 nM, antithrombin titrated, then three 20 min incubations at pH 7.4, anti-antithrombin-HRP detection
T2 construct: also called SERPIN C1

human serum albumin [2] = molecular target: T1, human serum albumin; assay: bridging immunosorbent assay: HSA coated, KB-F9D9A12 100 nM, factor IX 0-12 microgram/ml, 2.5 mM CaCl2, anti-factor IX detection
human factor IX = molecular target: T3, human factor IX (human, UniProt P00740 47-461); assay: bridging ELISA: HSA-coated wells, KB-F9D9A12 at 100 nM, factor IX titrated in 2.5 mM CaCl2, anti-factor IX-HRP detection
T3 construct: also called coagulation factor IX

[3] = molecular target: T4, human von Willebrand factor (human, UniProt P04275 764-2813); assay: control immunosorbent assays
T4 construct: also called VWF; human VWF

human serum albumin [4] = molecular target: T1, human serum albumin; assay: bridging immunosorbent assay: albumin coated, KB-V13A12 200 nM, VWF 0-6 microgram/ml, anti-VWF detection
mouse serum albumin = molecular target: T5, mouse serum albumin (mouse, UniProt P07724 25-608); assay: as above
T5 construct: also called MSA; murine serum albumin

human serum albumin [5] = molecular target: T1, human serum albumin; assay: bridging immunosorbent assay: HSA coated, KB-FXE3A12 100 nM, factor X 0-6 microgram/ml, anti-factor X detection

Sequence of human antithrombin (P01008 33-464 limits assumed): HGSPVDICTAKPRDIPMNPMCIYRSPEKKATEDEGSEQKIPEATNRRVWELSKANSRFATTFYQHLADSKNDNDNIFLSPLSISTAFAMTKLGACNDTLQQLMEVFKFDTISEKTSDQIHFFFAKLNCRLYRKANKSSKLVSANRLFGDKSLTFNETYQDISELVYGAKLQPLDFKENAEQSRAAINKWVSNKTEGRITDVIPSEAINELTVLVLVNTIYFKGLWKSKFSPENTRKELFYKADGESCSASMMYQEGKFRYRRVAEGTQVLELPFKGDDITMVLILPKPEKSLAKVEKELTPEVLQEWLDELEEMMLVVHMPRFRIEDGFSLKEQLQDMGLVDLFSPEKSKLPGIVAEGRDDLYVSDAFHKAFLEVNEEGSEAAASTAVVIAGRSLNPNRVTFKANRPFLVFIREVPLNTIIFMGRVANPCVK

binding result (human serum albumin [4]): binds
binding result (mouse serum albumin): binds
B4: KB-V13A12 (bispecific antibody)
chain: QVQLVQSGGGLVQAGDSLRLSCAASGRTFIRYAMAWFRQAPGKEREFVAAIPQSGGRSYYADSVKGRFTISRDNAKNTVYLQMNSLKPEDTAVYSCAATSTYYGRSAYSSHSGGYDYWGQGTQVTVSSAAAGGGSGGGSGGGSGGGS[about 120 residues omitted here]
notes: Bispecific single-domain antibody: anti-VWF D'D3 sdAb KB-VWF-013, linker, anti-albumin sdAb OptiAlb-12; also called KB-VWF-013 fused to OptiAlb-12; not shown: C-terminal histidine and cMyc-tag from the pHEN6 plasmid

binding result (human serum albumin [5]): binds
B5: KB-FXE3A12 (bispecific antibody)
chain: QVQLQESGGGLVQAGGSLRLSCAASGSISRGDLMAWFRQAPGKERELVATITPGANTYYADSVKGRFTISRDNTKNTMYLQMNSLKPEDTAVYFCAAASGKGPGRGRKHKYWGQGTQVTVSSAAAGGGSGGGSGGGSGGGS[about 120 residues omitted here]
notes: also called KB-X3A12; KB-FX-E3 fused to OptiAlb-12; not shown: C-terminal histidine and cMyc-tag from the pHEN6 plasmid

The next lines start with the binder.

B1: KB-AT01A12 (bispecific antibody)
chain: QVQLVQSGGGLVQAGGSLRLSCAASGRTFRNYVMGWFRQAPGKDPEFIAGINRSGAITYYGDSVKGRFTISRDNAKNTVSLQMNSLEPEDTAVYYCAAGETTWSIRRDDYDYWGQGTQVTVSSAAAGGGSGGGSGGGSGGGS[about 120 residues omitted here]
notes: also called KB-AT-01 fused to OptiAlb-12; not shown: C-terminal histidine and cMyc-tag from the pHEN6 plasmid
binding result (human serum albumin [1]): binds
binding result (human antithrombin): binds

B2: KB-F9D9A12 (bispecific antibody)
chain: QVQLVQSGGGLVQPGGSLKLSCAASGLIFSFNALGWYRQAPGKQRELVAHITSGGSTNYADSVKGRFTISRDNVKKTAFLQMNSLKPEDTAVYYCRSSQSGVEYWGQGTQVTVSSAAAGGGSGGGSGGGSGGGS[about 120 residues omitted here]
notes: also called KB-F9-D9 fused to OptiAlb-12; KB-FIX-D9 fused to OptiAlb-12; not shown: C-terminal histidine and cMyc-tag from the pHEN6 plasmid
binding result (human serum albumin [2]): binds
binding result (human factor IX): binds

B3: KB-V80A12 (bispecific antibody)
chain: QVQLVQSGGGLVQAGGSLKLSCAASGRTFSDYAMGWFRQAPGKERDFVASISRSGGRLSYADSVKGRFTISRDNAKNTVYLQMNSLKPEDTAVYYCAARTNWNPPRPLPEEYNYWGQGTQVTVSSAAAGGGSGGGSGGGSGGGS[about 120 residues omitted here]
notes: also called KB-VWF-080 fused to OptiAlb-12; not shown: C-terminal histidine and cMyc-tag from the pHEN6 plasmid
binding result [3]: binds
